Assay results as given in PubChem BioAssay AID1468 (National Center for Advancing Translational Sciences (NCATS), 2008).
Screen size: about 280,000 compounds; about 1,100 (0.39%) were called active. The inconclusive results got no clear call from the source; some entries with a clear call stand among them for comparison. Calls follow the shape of the dose curve; as a rule, active = well fitted inhibition curve with a large enough effect; inconclusive = small, poorly fitted or top-dose-only effect, or effect the other way; inactive = flat fitted curve, though single readings scatter. Potencies of inconclusive entries are left out as doubtful fits.
Also: nearly all actives have a fitted effect of over 55% in size.
Potency is read from the fitted curve at half-maximal effect; tags tell the direction and shape of the fitted curve.

The compounds below were run against Microtubule-associated protein tau (Homo sapiens) (UniProt P10636) (assay: qHTS for Inhibitors of Tau Fibril Formation, Fluorescence Polarization). Conditions: K18 P301L tau heparin fibrillization, Alexa594 FP, 6 h; series mostly up to 57.7 µM.
Sequence of UniProt P10636 (P10636 whole entry, looked up): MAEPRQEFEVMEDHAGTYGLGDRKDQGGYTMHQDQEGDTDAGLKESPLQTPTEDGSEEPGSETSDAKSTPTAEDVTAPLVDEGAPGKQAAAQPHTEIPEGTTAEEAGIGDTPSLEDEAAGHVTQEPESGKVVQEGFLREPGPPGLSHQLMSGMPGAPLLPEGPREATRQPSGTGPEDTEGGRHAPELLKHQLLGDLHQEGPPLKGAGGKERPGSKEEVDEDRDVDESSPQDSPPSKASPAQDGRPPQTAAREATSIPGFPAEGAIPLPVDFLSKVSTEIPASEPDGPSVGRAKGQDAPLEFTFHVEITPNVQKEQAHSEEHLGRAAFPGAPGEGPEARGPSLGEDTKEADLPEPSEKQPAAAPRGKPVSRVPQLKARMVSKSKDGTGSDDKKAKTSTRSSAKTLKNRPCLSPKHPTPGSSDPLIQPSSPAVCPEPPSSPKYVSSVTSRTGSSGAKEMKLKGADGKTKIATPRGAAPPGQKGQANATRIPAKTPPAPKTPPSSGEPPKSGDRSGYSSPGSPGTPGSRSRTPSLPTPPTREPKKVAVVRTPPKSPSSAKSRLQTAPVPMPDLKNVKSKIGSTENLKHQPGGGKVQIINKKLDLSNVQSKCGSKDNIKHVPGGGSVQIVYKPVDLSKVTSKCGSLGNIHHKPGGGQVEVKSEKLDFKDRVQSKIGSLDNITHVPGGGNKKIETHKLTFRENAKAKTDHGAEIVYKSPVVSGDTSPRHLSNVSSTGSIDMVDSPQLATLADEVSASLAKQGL
Method in brief: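 Recombinant K18 P301L […], labeled with Alexa 594 at 0.24 uM over 15 uM unlabeled; heparin inducer 20 uM final; 37 C, 6 hr; FP endpoint.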
With Cc1cc(C)c2oc(C(=O)Nc3ccc(S(=O)(=O)N4CCC(C)CC4)cc3)cc(=O)c2c1 the Potency was inconclusive [inhibitor, partial curve].
With Cc1ccc(CNC(=O)CCCn2c(=O)c3ccccc3n(Cc3ccccc3C)c2=O)cc1 the Potency was “inactive”.
With c1ccc(Nc2c3c(nc4ccccc24)CCC3)cc1 the Potency was “inactive”.
With CCc1ccc(C2=NNC(=Nc3cccc(S(=O)(=O)N(C)C)c3)SC2)cc1 the Potency was inconclusive [inhibitor, single point].
In the case of CSc1nc2ccc3nc(NC(=O)c4cccs4)sc3c2s1, the Potency is reported as “inactive”.
In the case of COc1cccc(NC(=O)C2CCN(c3nc4ccccc4nc3C(F)(F)F)CC2)c1, the Potency is reported as inconclusive [inhibitor, partial curve].
CC(=O)c1sc(NC(=O)c2c(F)cccc2F)nc1C was tested, and the Potency was “inactive”.
In the case of Cc1cccc(Cn2nnc(C(=O)Nc3cc(C)ccc3C)c2N)c1, the Potency is reported as inconclusive [inhibitor, full curve, poor fit].
With CCc1nnc(NC(=O)CSc2nnc(-c3c[nH]c4ccccc34)n2CCOC)s1 the Potency was inconclusive [inhibitor, single point].
CN(C)c1ccc(C(CNC(=O)c2ccccc2)c2c[nH]c3ccccc23)cc1 (stereo not given) was tested, and the Potency was inconclusive [activator, partial curve, poor fit].
In the case of N#CC1=C2SCN(Cc3ccco3)CN2C(=O)CC1c1ccc(Cl)cc1 (stereo not given), the Potency is reported as inconclusive [inhibitor, partial curve].
In the case of CC(C)(C)OC(=O)NCCCC[C@H](NC(=O)c1nc[nH]c1C(=O)NCc1ccccc1)C(=O)OC(C)(C)C, the Potency is reported as inconclusive [inhibitor, partial curve].
For Cc1cc(NC(=O)CC2CCCC2)n(-c2nc3ccccc3[nH]2)n1, the Potency was inconclusive [inhibitor, partial curve, poor fit].
In the case of OCC1=CC[N+]2(Cc3ccccc3)CCC(O)[C@@H]12 (stereo not given in full), the Potency is reported as “inactive”.
In the case of CN(Cc1ccccc1)C(=O)c1ccccc1NC(=O)c1ccccc1, the Potency is reported as inconclusive [inhibitor, single point].
In the case of O=C(COc1ccccc1)N(Cc1ccco1)c1ccc(O)cc1, the Potency is reported as inconclusive [inhibitor, single point].
For Cc1nnc(N/N=C\c2ccc(-c3cccc(C(=O)O)c3)o2)n1N, the Potency was inconclusive [inhibitor, single point].
For CC12CCC(C(=O)N(c3ccccn3)c3ccccn3)(OC1=O)C2(C)C (stereo not given), the Potency was inconclusive [inhibitor, single point].
With O=C(CCNC(=O)c1ccccc1Cl)Nc1cc(C(F)(F)F)ccc1Cl the Potency was “inactive”.
CC1=CC(=O)C=C(C)C1=NOC(=O)/C=C\c1ccccc1 was tested, and the Potency was inconclusive [inhibitor, partial curve, poor fit].
In the case of C/C(=N\NC(=O)c1cccc(Br)c1)c1cccc(NC(=O)c2ccc(C)o2)c1, the Potency is reported as inconclusive [inhibitor, single point].
CCOC(=O)CCc1nc2ccccc2[nH]1 was tested, and the Potency was inconclusive [inhibitor, single point].
With CCN(CC)S(=O)(=O)c1ccc(/C=C/C(=O)Nc2ccc(N3CCOCC3)cc2)cc1 the Potency was inconclusive [activator, partial curve].
With CCC(=O)N[C@@H]1CCc2cccc(OC)c2C1 the Potency was inconclusive [inhibitor, single point].
CCOc1ccc(Oc2ccc(Cl)cc2NC(=O)CCNC(C)=O)cc1 was tested, and the Potency was inconclusive [inhibitor, single point].
For COc1ccc(C2CC(=O)c3sc(NC(C)=O)nc3C2)cc1 (stereo not given), the Potency was “inactive”.
O=S(=O)(Nc1ccc2oc(-c3ccccc3)nc2c1)c1ccccc1 was tested, and the Potency was inconclusive [inhibitor, partial curve].
For Cc1cc(-c2n[nH]c(=S)n2/N=C/c2ccccc2[N+](=O)[O-])n[nH]1, the Potency was “inactive”.
In the case of c1cncc(-c2nc3cc4ccccc4cc3[nH]2)c1, the Potency is reported as inconclusive [inhibitor, single point].
CC(=O)Nc1ccc(S(=O)(=O)N(Cc2ccccc2)c2ccccc2F)cc1 was tested, and the Potency was inconclusive [inhibitor, partial curve].
In the case of CCOC(=O)c1c(C)[nH]c(C)c1S(=O)(=O)N1CCCC(C(=O)N2CCN(c3cc(C)ccc3C)CC2)C1 (stereo not given), the Potency is reported as “inactive”.
For C=CCC(C)(O)C#Cc1ccccc1 (stereo not given), the Potency was inconclusive [inhibitor, single point].
For COc1ccccc1NC(=O)Cc1csc(NC(=S)Nc2ccc(C)cc2)n1, the Potency was inconclusive [inhibitor, single point].
CCOc1ccc(C(=O)CSCCC(=O)O)cc1 was tested, and the Potency was “inactive”.
CC1=C(C)/C(=N\OS(=O)(=O)c2ccc(C)cc2)C=CC1=O was tested, and the Potency was active: 15.8 µM.
In the case of CCN(CC)S(=O)(=O)c1cc(NC(=O)c2n[nH]c(=O)c3ccccc23)ccc1C, the Potency is reported as inconclusive [inhibitor, single point].
Cc1nnc(SCc2ccccc2CSc2nnc(C)s2)s1 was tested, and the Potency was inconclusive [inhibitor, full curve, poor fit].
In the case of CCc1cccc(C)c1NC(=O)c1cnn(-c2ccc(F)cc2)c1-n1cccc1, the Potency is reported as “inactive”.
In the case of CSc1nn(Cc2cccc(F)c2)c(N(C(C)=O)C(C)=O)c1S(=O)(=O)c1ccccc1, the Potency is reported as inconclusive [inhibitor, partial curve].
With CCc1ccc(NC(=O)c2ccc(F)c(S(=O)(=O)NCC3COc4ccccc4O3)c2)cc1 (stereo not given) the Potency was inconclusive [inhibitor, partial curve, poor fit].
In the case of COCCSc1ccccc1C(=O)NCCc1ccccc1, the Potency is reported as “inactive”.
With COc1ccc2nc(NC(=O)c3cnccn3)sc2c1 the Potency was “inactive”.
With Cc1ccc(NCCC(=O)c2ccc(Br)cc2)cc1 the Potency was “inactive”.
O=c1[nH]c(S)c(/C=C2\C=Nc3ccccc32)s1 was tested, and the Potency was inconclusive [inhibitor, partial curve, poor fit].
With CC(C)(C)C1=CC(=O)C(=O)C(C(C)(C)C)=C1 the Potency was inconclusive [inhibitor, single point].
